Out of some 310,000 compounds screened, about 14,000 (4.5%) showed an effect of 50% or more. Effects have a minus sign here. The list shows a part of the results.
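Also: peak tail current of the secondary pulse compared with the same well before compound.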

The target of this assay is human ether-à-go-go-related gene (hERG) potassium channel (human, UniProt Q12809). Nature of the assay: primary screen, population patch clamp on CHO cells stably expressing hERG.
human ether-à-go-go-related gene (hERG) potassium channel, sequence (Q12809 whole entry, looked up): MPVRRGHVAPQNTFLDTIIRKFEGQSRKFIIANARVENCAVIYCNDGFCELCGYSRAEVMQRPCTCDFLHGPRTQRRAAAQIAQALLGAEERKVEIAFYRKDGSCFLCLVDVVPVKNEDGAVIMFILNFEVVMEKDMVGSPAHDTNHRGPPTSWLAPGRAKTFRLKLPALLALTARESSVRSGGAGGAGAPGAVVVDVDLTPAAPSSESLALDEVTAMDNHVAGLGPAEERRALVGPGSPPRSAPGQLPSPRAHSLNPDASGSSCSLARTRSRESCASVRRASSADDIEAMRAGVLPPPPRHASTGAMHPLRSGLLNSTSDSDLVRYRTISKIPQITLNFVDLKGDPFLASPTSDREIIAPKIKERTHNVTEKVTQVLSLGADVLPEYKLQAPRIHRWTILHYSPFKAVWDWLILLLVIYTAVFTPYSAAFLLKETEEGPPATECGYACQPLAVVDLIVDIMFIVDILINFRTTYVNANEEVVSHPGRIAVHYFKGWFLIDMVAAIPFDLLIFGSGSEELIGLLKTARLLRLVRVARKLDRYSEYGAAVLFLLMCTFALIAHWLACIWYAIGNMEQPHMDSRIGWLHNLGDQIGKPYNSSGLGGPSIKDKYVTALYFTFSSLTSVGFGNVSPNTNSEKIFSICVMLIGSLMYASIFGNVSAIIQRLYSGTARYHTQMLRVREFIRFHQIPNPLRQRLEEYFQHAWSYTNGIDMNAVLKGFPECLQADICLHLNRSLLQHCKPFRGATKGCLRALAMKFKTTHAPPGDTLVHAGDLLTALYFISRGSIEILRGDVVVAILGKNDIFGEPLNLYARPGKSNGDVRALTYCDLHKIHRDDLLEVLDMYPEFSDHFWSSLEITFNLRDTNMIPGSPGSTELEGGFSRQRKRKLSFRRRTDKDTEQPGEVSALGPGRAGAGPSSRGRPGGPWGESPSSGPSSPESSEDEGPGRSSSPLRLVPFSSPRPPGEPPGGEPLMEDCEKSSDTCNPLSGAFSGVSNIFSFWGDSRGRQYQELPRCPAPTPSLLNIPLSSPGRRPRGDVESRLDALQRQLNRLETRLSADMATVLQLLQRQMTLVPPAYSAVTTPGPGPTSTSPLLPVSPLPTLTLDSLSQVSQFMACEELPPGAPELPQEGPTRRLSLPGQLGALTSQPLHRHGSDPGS
For `C(=N\n1cnnc1)/c1cccnc1`, the “hERG current change (%, negative = inhibition) at 10uM” value came to 1.61%.

`CCOC(=O)C1CCCN(C(=O)c2ccc3c(=O)n(Cc4ccccc4OC)c(=S)[nH]c3c2)C1` (stereo not shown): the “hERG current change (%, negative = inhibition) at 10uM” value was determined as 1.81%.

For the compound `O=C(CCNC(=O)c1ccccc1Cl)Nc1cccc(C(F)(F)F)c1`, the “hERG current change (%, negative = inhibition) at 10uM” value was -5.93%.

As for `COc1ccc2nc(NC(=O)CN(c3ccc(C)cc3)S(=O)(=O)c3c(C)nn(C)c3C)sc2c1`, the “hERG current change (%, negative = inhibition) at 10uM” value is -21.6%.

Consider `Cc1ccc(-c2csc(NC(=O)c3cccc([N+](=O)[O-])c3C(=O)O)n2)cc1`, for which the “hERG current change (%, negative = inhibition) at 10uM” value stood at 5.68%.

Turning to `COC(=O)C1=C(c2cc3ccccc3o2)C[C@@H]2CC[C@H]1N2C(=O)NCc1ccco1`, the “hERG current change (%, negative = inhibition) at 10uM” value is listed as -4.6%.

Take `Cc1onc(-c2ccccc2)c1C(=O)Nc1cccc(OC(C)C)c1`: the “hERG current change (%, negative = inhibition) at 10uM” value is listed as -11.6%.

Turning to `CN(C)CCN(C(=O)/C=C/c1cccs1)c1nc2ccc(Br)cc2s1.Cl`, the “hERG current change (%, negative = inhibition) at 10uM” value turned out to be 12.7%.

For `COc1ccccc1C(=O)Nc1ccccc1N1CCN(S(C)(=O)=O)CC1`, the “hERG current change (%, negative = inhibition) at 10uM” value is listed as -62%.

For the compound `Cc1ccccc1SCC(=O)NNC(=O)c1ccncc1`, the “hERG current change (%, negative = inhibition) at 10uM” value is given as -3.16%.

As to `COc1ccc(/C(C)=N/NC(=O)CNC(=O)c2cccs2)cc1`, the “hERG current change (%, negative = inhibition) at 10uM” value was determined as 7.66%.

On to `C=CCNc1nc(-c2cc3ccccc3o2)cs1`, for which the “hERG current change (%, negative = inhibition) at 10uM” value is 3.51%.

Turning to `Fc1ccc(-c2ccc(/C=N/n3cnnc3)o2)cc1`, the “hERG current change (%, negative = inhibition) at 10uM” value is listed as -9.01%.

For the compound `CCS(=O)(=O)N1CCC(C(=O)N2CCOCC2)CC1`, the “hERG current change (%, negative = inhibition) at 10uM” value amounted to 12%.

On to `N#Cc1ccc(OCC(=O)OCC(=O)Nc2ccc(N3CCOCC3)cc2)cc1`, for which the “hERG current change (%, negative = inhibition) at 10uM” value is -15.3%.

In the case of `C=C(C)[C@H]1CC=C(C)C(=O)C1`, the “hERG current change (%, negative = inhibition) at 10uM” value stood at 19%.

With `Cc1ccccc1C(O)c1ccccn1` (stereo not shown), the “hERG current change (%, negative = inhibition) at 10uM” value is listed as 3.92%.

Consider `CCCCNS(=O)(=O)c1ccc(OCC(=O)N2CCN(Cc3ccc4c(c3)OCO4)CC2)cc1`, for which the “hERG current change (%, negative = inhibition) at 10uM” value is -27%.

On to `N=c1c2c(-c3ccccc3)c(-c3ccccc3)n(Cc3ccco3)c2ncn1CCCN1CCOCC1`, for which the “hERG current change (%, negative = inhibition) at 10uM” value is listed as -84.9%.

For the compound `OC(CNc1nc2ccccc2s1)c1ccccc1` (stereo not shown), the “hERG current change (%, negative = inhibition) at 10uM” value is on record as -5.81%.

On to `O=C(CSc1ncccn1)n1c2c(c3ccccc31)CCCC2`, for which the “hERG current change (%, negative = inhibition) at 10uM” value is -7.25%.

In the case of `O=C(NC(=S)NCc1nc2ccccc2[nH]1)c1ccc(F)cc1`, the “hERG current change (%, negative = inhibition) at 10uM” value is reported as -0.141%.

Consider `N/C(=N\OC(=O)c1cccc2ccccc12)c1cccc([N+](=O)[O-])c1`, for which the “hERG current change (%, negative = inhibition) at 10uM” value turned out to be 3.63%.

For `CC(C)N(C(=O)Cn1c(Cl)nc2ccccc21)C(C)C`, the “hERG current change (%, negative = inhibition) at 10uM” value came out at 8.7%.

With `O=C(CN1C(=O)C2C3C=CC(C3)C2C1=O)NCCc1ccccc1` (stereo not shown), the “hERG current change (%, negative = inhibition) at 10uM” value worked out at 10.6%.

As for `COc1ccc(CCCC(=O)O)c(C)c1`, the “hERG current change (%, negative = inhibition) at 10uM” value turned out to be 25.8%.

With `CCCCc1nnc(NC(=O)CCS(=O)(=O)Cc2ccccc2)s1`, the “hERG current change (%, negative = inhibition) at 10uM” value is 15.2%.

As to `Cl.O=C(CN1CCCCC1)NCC1(c2ccccc2)CCCC1`, the “hERG current change (%, negative = inhibition) at 10uM” value is listed as -5.19%.

On to `CC(=O)N1CCN(S(=O)(=O)c2cccc(C(=O)Nc3ccccc3N3CCOCC3)c2)CC1`, for which the “hERG current change (%, negative = inhibition) at 10uM” value was -5.88%.

Consider `Oc1cccc2cnccc12`, for which the “hERG current change (%, negative = inhibition) at 10uM” value stood at 1.3%.

For the compound `C/C(O)=c1/ccc2cccc3nc(C)nc1c23`, the “hERG current change (%, negative = inhibition) at 10uM” value stood at 7.96%.

As to `CC(=O)Nc1ccc2nc(SCC(=O)N3CCOCC3)sc2c1`, the “hERG current change (%, negative = inhibition) at 10uM” value is 18.9%.

In the case of `O=C1C=C(c2ccccc2)C[C@@H](c2ccc3c(c2)OCO3)C1`, the “hERG current change (%, negative = inhibition) at 10uM” value was -4.15%.

For the compound `CCN(CC)S(=O)(=O)c1cc(-c2nnc(-c3ccc(Br)cc3)o2)ccc1Cl`, the “hERG current change (%, negative = inhibition) at 10uM” value was -6.62%.

Consider `O=C(COc1ccc(Cl)cc1)NCc1nnc(SCC(=O)NCC2CCCO2)o1` (stereo not shown), for which the “hERG current change (%, negative = inhibition) at 10uM” value is given as 8.31%.

As to `COc1ccc(C(C(=O)NCC2CCCO2)N(C(=O)CNC(=O)c2ccco2)c2ccccc2)cc1OC` (stereo not shown), the “hERG current change (%, negative = inhibition) at 10uM” value was determined as 19.4%.

Take `COc1ccc(NC(=O)C2CCN(S(C)(=O)=O)CC2)cc1`: the “hERG current change (%, negative = inhibition) at 10uM” value was 0.57%.

As to `O=C(O)C(=O)O.O=C(c1cccc(F)c1)N1CCC(N2CCOCC2)CC1`, the “hERG current change (%, negative = inhibition) at 10uM” value is 11.1%.

Consider `COc1ccc(-c2nc(-c3ccccc3OC)no2)cc1OC`, for which the “hERG current change (%, negative = inhibition) at 10uM” value was -5.13%.

For the compound `COc1ccc(CNC(=O)CN(Cc2ccc(Cl)cc2)C(=O)c2csnn2)cc1`, the “hERG current change (%, negative = inhibition) at 10uM” value was -71.7%.

`CCOC(=O)Cn1nc(C)c([N+](=O)[O-])c1C`: the “hERG current change (%, negative = inhibition) at 10uM” value is listed as 19.1%.

As for `Cc1cccn2c(=O)nc(SCC(=O)N3CCC(Cc4ccccc4)CC3)nc12`, the “hERG current change (%, negative = inhibition) at 10uM” value was -78.9%.

Turning to `COc1cc(/C=N/Nc2cccc(C)c2)ccc1OC(=O)c1cccs1`, the “hERG current change (%, negative = inhibition) at 10uM” value is on record as -12.4%.

In the case of `CCn1c(C)nc2cc(NC(=O)Nc3cccc(C(C)=O)c3)ccc21`, the “hERG current change (%, negative = inhibition) at 10uM” value is recorded as -32.9%.

As for `Cc1ccc(C(=O)Nc2nc(-c3cccnc3)cs2)o1`, the “hERG current change (%, negative = inhibition) at 10uM” value is reported as -49.2%.

In the case of `Cc1ccc(Cn2ccsc2=NC(=O)COC(=O)c2ccc(NC(=O)CC#N)cc2)cc1`, the “hERG current change (%, negative = inhibition) at 10uM” value is recorded as -1.29%.

For the origin of these results see PMC4336329 (PLoS ONE, 2015).
